Measurements reported in article PMC4336329 (PLoS ONE, 2015).
The whole screen tested about 310,000 compounds, of which about 14,000 (4.5%) showed an effect of 50% or more. Effects have a minus sign here. This is one part of the list.

Target: human ether-à-go-go-related gene (hERG) potassium channel (human, UniProt Q12809)
Test: primary screen, population patch clamp on CHO cells stably expressing hERG
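Also: peak tail current of the secondary pulse compared with the same well before compound.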

Sequence of human ether-à-go-go-related gene (hERG) potassium channel (Q12809 whole entry, looked up): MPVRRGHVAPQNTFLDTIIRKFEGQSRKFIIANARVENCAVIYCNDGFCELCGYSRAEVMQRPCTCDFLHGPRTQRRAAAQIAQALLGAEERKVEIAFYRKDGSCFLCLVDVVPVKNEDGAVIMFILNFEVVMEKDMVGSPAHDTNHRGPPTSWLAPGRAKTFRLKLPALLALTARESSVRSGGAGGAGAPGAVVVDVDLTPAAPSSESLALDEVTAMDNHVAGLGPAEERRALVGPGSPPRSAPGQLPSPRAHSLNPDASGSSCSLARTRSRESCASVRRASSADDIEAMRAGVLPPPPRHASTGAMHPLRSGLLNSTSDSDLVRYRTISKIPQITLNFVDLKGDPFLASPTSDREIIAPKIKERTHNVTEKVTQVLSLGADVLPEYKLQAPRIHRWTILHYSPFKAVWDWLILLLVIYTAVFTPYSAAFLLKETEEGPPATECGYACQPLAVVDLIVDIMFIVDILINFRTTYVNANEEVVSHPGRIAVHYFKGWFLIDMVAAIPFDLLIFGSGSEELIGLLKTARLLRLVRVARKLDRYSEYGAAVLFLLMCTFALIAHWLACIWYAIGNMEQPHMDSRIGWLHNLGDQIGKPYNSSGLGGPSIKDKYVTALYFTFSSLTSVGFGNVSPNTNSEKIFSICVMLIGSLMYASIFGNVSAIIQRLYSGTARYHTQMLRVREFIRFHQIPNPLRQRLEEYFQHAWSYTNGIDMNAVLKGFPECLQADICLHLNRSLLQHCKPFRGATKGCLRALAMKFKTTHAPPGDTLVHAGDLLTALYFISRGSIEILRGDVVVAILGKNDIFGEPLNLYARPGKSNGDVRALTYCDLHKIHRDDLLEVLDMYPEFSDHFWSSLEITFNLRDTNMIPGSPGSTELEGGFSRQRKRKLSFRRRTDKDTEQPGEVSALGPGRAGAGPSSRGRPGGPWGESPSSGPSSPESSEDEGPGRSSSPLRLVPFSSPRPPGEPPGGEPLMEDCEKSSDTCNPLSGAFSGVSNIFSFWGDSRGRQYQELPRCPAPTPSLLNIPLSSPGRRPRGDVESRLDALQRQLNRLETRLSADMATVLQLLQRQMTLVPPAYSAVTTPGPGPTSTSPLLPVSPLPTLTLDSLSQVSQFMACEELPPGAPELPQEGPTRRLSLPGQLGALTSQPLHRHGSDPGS

Structure (SMILES)	hERG current change (%, negative = inhibition) at 10uM
CCC(C)(C)NC(=O)/C=C/c1cccs1	-10.9%
O=C(Cc1ccc(S(=O)(=O)N2CCOCC2)s1)Nc1ccc(S(=O)(=O)N2CCCCC2)cc1	21.2%
CCOC(=O)c1c(C)[nH]c(C)c1C(=O)COC(=O)/C=C/c1ccc(Cl)cc1	3.18%
COc1ccc2cc1Oc1ccc(cc1)C[C@H]1c3cc(c(OC)cc3CCN1C)Oc1c(OC)c(OC)cc3c1[C@@H](C2)N(C)CC3	-57.4%
CC(NC(=O)c1cccc(S(=O)(=O)N(C)C)c1)C1CC2CCC1C2 (stereo not shown)	20%
CNc1nnc(-c2cc3ccccc3oc2=O)s1	9.69%
Cc1ccc(S(=O)(=O)NCCC(=O)N2CCN(Cc3ccccc3)CC2)cc1	11%
CCOc1ccc2cc(C(=O)NCc3ccccc3)c(=N)oc2c1	13.8%
O=C(OCC(=O)N1CCN(c2ccccc2)CC1)c1ccc(Cl)nc1	1.69%
CCC(Cc1ccccc1)NC(=O)Cn1ncc2ccsc2c1=O (stereo not shown)	2.8%
CCOc1cc(C2NN=C(c3ccccc3)S2)ccc1OCc1ccc(F)cc1 (stereo not shown)	14.2%
NC(=O)c1ccc(N2CCCCCC2)c([N+](=O)[O-])c1	3.08%
CC(C)Oc1ccccc1-c1nc(SCC(=O)O)n[nH]1	10.3%
Cc1cccnc1N(C(=O)Nc1cccc(Cl)c1)C1=NCC(C)(C)S1	8.13%
Cc1ccc(S(=O)(=O)N2CCC(C(=O)OCCOc3cccc(C)c3)CC2)cc1	-1.76%
O=C1C2C(c3cccc(/C=C/c4ccccc4)c3)CC=CC2C(c2ccc3ccccc3c2)N1Cc1ccccc1 (stereo not shown)	12.1%
O=C(NCCCN1CCCCC1)c1ccc2c(c1)NC(=O)c1ccccc1S2	-13.7%
CC(C)COc1ccc(N)cc1OCC(C)C.Cl	6.16%
O=C(c1cccc(C(=O)N(c2ccccn2)C2CCCCC2)c1)N(c1ccccn1)C1CCCCC1	3.47%
CCCCOc1ccc(C2=CSC3=NCCN23)cc1[N+](=O)[O-]	-71%
CCN1CCCC1CNC(=O)C1CCN(C(=O)c2cc3sccc3n2Cc2ccc(F)cc2)CC1 (stereo not shown)	-25.9%
CCOc1ncccc1C(=O)N(CC)CC(=O)Nc1ccc(NC(C)=O)cc1	0.782%
Cc1sc(NC(=O)c2cccs2)c(C(N)=O)c1C	4.5%
O=C(O)C(=O)O.O=C(c1ccco1)N1CCN(CC(=O)N2c3ccccc3CCc3ccccc32)CC1	-4.72%
CC1(C)OC2CCN3C(C(O)COS3(=O)=O)C2O1 (stereo not shown)	11%
CCOc1ccc(N2C(=O)CC(SC(=NC)Nc3cccc(OC)c3)C2=O)cc1 (stereo not shown)	19.5%
COc1ccc(CN2CCC(Oc3ccc(C(=O)NCc4ccccn4)cc3)CC2)c(F)c1	-12.6%
CCNC(=O)NC(=O)COC(=O)CNC(=O)COc1ccccc1	19.4%

Structure (SMILES)	hERG current change (%, negative = inhibition) at 10uM
COc1ccc(C(=O)Nc2ccc(OCC(=O)N3CCOCC3)cc2)c(OC)c1OC	2.17%
CCC(C)NC(=O)C1CCC(CNS(=O)(=O)c2ccc3c(c2)CC(C)N3C(=O)C2CC2)CC1 (stereo not shown)	-9.31%
O=C(O)Cc1csc(NC(=O)c2ccco2)n1	13.9%
CCCCNC(=O)N1CCCC(N(C)CCc2ccc(OC)c(OC)c2)C1 (stereo not shown)	-67.8%
COc1ccccc1-c1nc(C#N)c(NCCCn2ccnc2)o1	-7.62%
CC(=O)n1cc([C@@H]2C=C(C(=O)N3CCOCC3)O[C@H](OCc3ccc(CO)cc3)C2)c2ccccc21	-74.8%
C=CCn1c(CCCNC(=O)c2ccccc2OC)nc2ccccc21	-26.8%
CCOc1cccc(C(=O)NC(=S)Nc2ccc(N3CCCC3)cc2)c1	10.8%
O=C(COc1cccc(NC(=O)c2cccc([N+](=O)[O-])c2)c1)c1ccc(F)cc1	-47.8%
S=C1NCN(CCc2ccccc2)CN1	4.85%
O=C(NC(CSSCC(NC(=O)c1ccccc1)C(=O)O)C(=O)O)c1ccccc1 (stereo not shown)	2.12%
CCCCn1c(SCC(=O)Nc2cc(C)on2)nnc1-c1ccco1	-23.3%
O=C(O)CNC(=O)/C(=C/c1cccc([N+](=O)[O-])c1)NC(=O)c1ccco1	-1.47%
O=C(NC1CCOCC1)C1CCC(=O)N(CCc2ccc(Cl)cc2)C1 (stereo not shown)	-0.418%
CN1CCN(/C(=N\O)c2nonc2N)CC1	-1.19%
COc1ccc(C2=CSC3=NNC4(CCCCC4)NN23)cc1	0.832%
CCOc1ccccc1Nc1nnc(SCC(=O)NC(=O)c2cccn2C)s1	3.59%
CCCc1ccc(/C=C2\C(=O)c3ccccc3C(O)=C2C(=O)OCC)cc1	-0.732%
CC(C)OC(=O)c1c(F)c(F)c(N2CCOCC2)c(F)c1F	-20.9%
COc1ccc(C/C(C)=N/NC(=O)c2ccncc2)cc1	-7.41%
O=C1c2ccccc2C(=O)N1CN(C(=O)c1ccccc1[N+](=O)[O-])c1ccc(F)cc1	-9.74%
Cn1ncc(S(=O)(=O)Cc2ccccc2)c(Cl)c1=O	6.84%
O=c1[nH]c(=S)n(CCC2=CCCCC2)c(O)c1C=NCCCn1ccnc1	-69.3%
N/C(=N\NC(=O)c1ccccc1)c1cc2ccccc2oc1=O	23.7%
Cc1ccccc1CSCC(=O)Nc1ccccc1F	18.3%
CCN1C(=O)N(c2ccc(C(C)=O)cc2)S(=O)(=O)c2ccccc21	-0.163%
Cc1ccc2c(C)nc(N/C(N)=N/S(=O)(=O)c3ccc([N+](=O)[O-])cc3)nc2c1	-13.1%
